The assay is described as follows: qHTS Assay for Lipid Storage Modulators (AID 1519). As to conditions: Drosophila S3 cells, BODIPY lipid droplet/cell ratio, laser cytometry, cells loaded with oleic acid. In short, it runs like this:
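Cells seeded at 5,000 per well were treated with compounds over a concentration series and loaded with oleic acid (400 uM, as added). Lipid droplet fluorescence (488 nm excitation, 500-530 nm channel) was read by laser-scanning cytometry and normalized to 20 uM Triacsin C.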

The mark [1] stands for this setting: measured here: cell count channel max response.
The mark [2] stands for this setting: measured here: cell number channel AC50.
Where [3] appears, read: measured here: lipid (BODIPY) channel AC50.
The mark [4] stands for this setting: measured here: lipid channel max response.

This is one part of the list. Further columns of the screen follow, without active or inactive calls. Compounds called inactive in the main read-out are mostly missing here. Words in brackets tell the shape of the fitted curve; partial curves, single points and poor fits give uncertain potencies.
Tags describe the fitted curve by direction and shape.

Usually AC50 stands for the midpoint of the concentration-response curve, whichever way the signal moves. As to `CN(C)c1ncc2nc(-c3cccs3)c(=O)n(CCc3ccccc3)c2n1`, the max response reads like this: under setting [1], 33.5%; under setting [4], 43.9%. The AC50 reads like this: under setting [2], 0.631 µM [rising, full curve, poor fit]; under setting [3], 0.562 µM [rising, full curve].
As for `CN(CCc1ccc(Cl)c(Cl)c1)C[C@@H](O)COc1ccc(NS(C)(=O)=O)cc1`, the max response under setting [1] was found to be 62.2% and the max response under setting [4] was determined as 77.7%. Also, the half-maximal activity concentration (AC50) was 14.1 µM [rising, partial curve, poor fit] under setting [2] and 15.8 µM [rising, partial curve, poor fit] under setting [3].
On to `CSc1cc2c(cc1C(F)(F)F)N(C(=O)Nc1cccnc1)CC2`, for which the max response under setting [1] came to 135% and the max response under setting [4] is 175%. Further, the AC50 under setting [2] was 1.41 µM [rising, full curve] and the AC50 under setting [3] is 1.58 µM [rising, full curve].
`CN(C)c1ncnc2ccc(-c3cccc(C#N)c3)cc12`: the max response runs as follows: under setting [1], 43.9%; under setting [4], 55.1%. Also, the AC50 is, setting by setting: under setting [2], 8.91 µM [rising, partial curve]; under setting [3], 8.91 µM [rising, full curve].
Consider `NC(=S)c1ccc[n+]([C@@H]2O[C@@H](COP(=O)([O-])OP(=O)(O)OC[C@H]3O[C@@H](n4cnc5c(N)ncnc54)[C@H](OP(=O)(O)O)[C@H]3O)C(O)C2O)c1` (stereo not given in full), for which the max response reads like this: under setting [1], 28.1%; under setting [4], 25.1%. Further, the AC50 is, setting by setting: under setting [2], 0.0631 µM [falling, full curve, poor fit]; under setting [3], 0.0501 µM [falling, full curve, poor fit].
Consider `CN(C)c1ncc2ncc(=O)n(C)c2n1`, for which the max response under setting [1] is 27% and the max response under setting [4] was found to be 36.3%. The AC50 is 2 µM [rising, full curve, poor fit] under setting [2] and 2.51 µM [rising, full curve, poor fit] under setting [3].
In the case of `O=c1c(-c2ccc(Cl)cc2)nc2cncnc2n1Cc1ccccc1`, the max response reads like this: under setting [1], 15.4%; under setting [4], 26.4%. In addition, the concentration at half-maximal activity (AC50) under setting [2] is 1.58 µM [rising, partial curve, poor fit] and the AC50 under setting [3] was 0.0398 µM [rising, full curve, poor fit].
In the case of `CCNc1ncc2nc(-c3cccc(C#N)c3)c(=O)n(Cc3cccc(OC)c3)c2n1`, the max response reads like this: under setting [1], 34.8%; under setting [4], 37.2%. Moreover, the AC50 under setting [2] is 2.82 µM [rising, full curve] and the AC50 under setting [3] is 2 µM [rising, full curve].
In the case of `O=C(Nc1ccccc1)N1CCCC2(CCN(C(=O)c3csnn3)CC2)C1`, the max response turned out to be 11.7% under setting [1] and 23.9% under setting [4]. Further, the half-maximal activity concentration (AC50) runs as follows: under setting [2], 1.58 µM [rising, partial curve]; under setting [3], 1 µM [rising, full curve, poor fit].
Turning to `COc1cc(OC)c2c(=O)c(-c3ccc4c(c3)OCO4)coc2c1`, the max response is, setting by setting: under setting [1], 30.5%; under setting [4], 39.5%. Moreover, the AC50 under setting [2] was 0.282 µM [rising, full curve] and the AC50 under setting [3] is 0.0708 µM [rising, full curve].
For `CN(C)C(=O)c1ccc(-c2ccc3ncnc(N4CCNCC4)c3c2)cc1`, the max response runs as follows: under setting [1], 32.6%; under setting [4], 35.4%. The AC50 by setting is: under setting [2], 14.1 µM [rising, partial curve]; under setting [3], 14.1 µM [rising, partial curve, poor fit].
On to `COc1ncc2nc(CCc3ccccc3)c(=O)n(CCC#N)c2n1`, for which the max response under setting [1] was 28.5% and the max response under setting [4] is 42%. The AC50 reads like this: under setting [2], 0.0708 µM [rising, full curve, poor fit]; under setting [3], 0.0631 µM [rising, full curve].
Regarding `c1cncc(CNc2ccnc(-c3cccnc3)n2)c1`, the max response is, setting by setting: under setting [1], 39.8%; under setting [4], 49.5%. Further, the AC50 was 3.55 µM [rising, full curve] under setting [2] and 3.16 µM [rising, full curve] under setting [3].
`N#Cc1ccccc1-c1ccc2ncnc(NCc3ccccc3)c2c1`: the max response under setting [1] was -4.29% and the max response under setting [4] was -6.22%. Further, the concentration at half-maximal activity (AC50) is 2 µM [rising, partial curve] under setting [2] and 1.58 µM [rising, full curve] under setting [3].
As to `Clc1ccccc1-c1ccc2ncnc(NCCN3CCOCC3)c2c1`, the max response reads like this: under setting [1], 11.7%; under setting [4], 5.52%. Further, the AC50 by setting is: under setting [2], 3.98 µM [rising, single point]; under setting [3], 3.98 µM [rising, single point].
Consider `COc1cccc(-c2cncnc2NCCc2cnc[nH]2)c1`, for which the max response is 13% under setting [1] and 19.2% under setting [4]. In addition, the AC50 is, setting by setting: under setting [2], 0.891 µM [rising, full curve, poor fit]; under setting [3], 0.891 µM [rising, full curve, poor fit].
Regarding `Cc1cnc(CNc2ccnc(-c3cccc(NS(C)(=O)=O)c3)n2)cn1`, the max response under setting [1] is 31.1% and the max response under setting [4] was 35.2%. Moreover, the half-maximal activity concentration (AC50) reads like this: under setting [2], 2.51 µM [rising, full curve, poor fit]; under setting [3], 1.26 µM [rising, full curve].
Consider `COc1ccc2[nH]cc(CCNc3cc(-c4cccnc4)ncn3)c2c1`, for which the max response is, setting by setting: under setting [1], 18.2%; under setting [4], 26.8%. In addition, the AC50 under setting [2] is 1.26 µM [rising, partial curve] and the AC50 under setting [3] is 1.41 µM [rising, partial curve].
For the molecule `O=S(=O)(c1ccccc1)N1CCC2(CCCN(c3cccc(-c4ccccc4)c3)C2)CC1`, the max response stood at 30.6% under setting [1] and 30.2% under setting [4]. Moreover, the AC50 by setting is: under setting [2], 0.112 µM [rising, full curve]; under setting [3], 0.0282 µM [rising, full curve, poor fit].
With `Cc1noc(C)c1-c1cncnc1Nc1ccccc1`, the max response amounted to 40.7% under setting [1] and 47.8% under setting [4]. The concentration at half-maximal activity (AC50) was 3.16 µM [rising, full curve] under setting [2] and 2.24 µM [rising, full curve] under setting [3].
In the case of `Cc1nc2cnc(N3CCNCC3)nc2n(CCc2ccccc2)c1=O`, the max response by setting is: under setting [1], 34.9%; under setting [4], 42.5%. For the same molecule, the AC50 is, setting by setting: under setting [2], 0.398 µM [rising, full curve]; under setting [3], 0.316 µM [rising, full curve].
As for `Cc1cnc(CNc2cc(-c3ccccc3C(F)(F)F)ncn2)cn1`, the max response was found to be 37.9% under setting [1] and 44.8% under setting [4]. In addition, the concentration at half-maximal activity (AC50) under setting [2] is 1.41 µM [rising, full curve] and the AC50 under setting [3] is 1.26 µM [rising, full curve].
As to `COCCNc1nc(-c2cccc(NS(C)(=O)=O)c2)nc2ccccc12`, the max response reads like this: under setting [1], 35.2%; under setting [4], 43.2%. Further, the AC50 under setting [2] is 0.501 µM [rising, full curve, poor fit] and the concentration at half-maximal activity (AC50) under setting [3] was 1.12 µM [rising, partial curve].
As to `NC(Cc1cc(I)c(Oc2ccc(O)c(I)c2)c(I)c1)C(=O)O` (stereo not given), the max response runs as follows: under setting [1], 41.1%; under setting [4], 73%. Further, the AC50 reads like this: under setting [2], 15.8 µM [rising, partial curve]; under setting [3], 25.1 µM [rising, partial curve].
Regarding `O=c1c(-c2ccc(Cl)cc2)nc2cncnc2n1Cc1ccccc1Cl`, the max response amounted to 10.4% under setting [1] and 16.3% under setting [4]. For the same molecule, the AC50 was 2.82 µM [rising, partial curve] under setting [2] and 4.47 µM [rising, partial curve] under setting [3].
Consider `N#CCCn1c(=O)c(-c2cc(F)cc(F)c2)nc2cnc(OCc3ccccc3)nc21`, for which the max response reads like this: under setting [1], -1.83%; under setting [4], 0.543%. The concentration at half-maximal activity (AC50) under setting [2] was 2.51 µM [rising, partial curve, poor fit] and the concentration at half-maximal activity (AC50) under setting [3] is 1 µM [rising, partial curve, poor fit].
As for `C=C1CCC(O)C/C1=C\C=C1/CCCC2(C)C1CCC2C(C)/C=C/C(C)C(C)C` (stereo not given), the max response under setting [1] was found to be 69% and the max response under setting [4] turned out to be 81.4%. Also, the AC50 reads like this: under setting [2], 35.5 µM [rising, partial curve, poor fit]; under setting [3], 35.5 µM [rising, partial curve, poor fit].
For `COc1cccc(Cn2c(=O)c(-c3cccs3)nc3cnc(OCc4ccccc4)nc32)c1`, the max response was 45% under setting [1] and 53.1% under setting [4]. For the same molecule, the concentration at half-maximal activity (AC50) is 3.16 µM [rising, full curve] under setting [2] and 2.82 µM [rising, full curve] under setting [3].
Take `O=C(NC1CCN(Cc2ccccc2)CC1)c1ccc(I)cc1`: the max response by setting is: under setting [1], 104%; under setting [4], 134%. Also, the half-maximal activity concentration (AC50) under setting [2] was 14.1 µM [rising, partial curve] and the AC50 under setting [3] was 12.6 µM [rising, partial curve].
Consider `CC(=O)N1CCC2(CC1)CCN(c1ccccn1)CC2`, for which the max response runs as follows: under setting [1], 32.9%; under setting [4], 42.5%. Also, the half-maximal activity concentration (AC50) was 0.794 µM [rising, full curve, poor fit] under setting [2] and 0.708 µM [rising, full curve, poor fit] under setting [3].
Turning to `COc1cccc(-c2cncnc2Nc2ccccc2)c1`, the max response runs as follows: under setting [1], 32.3%; under setting [4], 41.2%. The AC50 runs as follows: under setting [2], 2.51 µM [rising, full curve]; under setting [3], 2.82 µM [rising, full curve].
As to `COc1cccc(-c2cncnc2NCc2cccs2)c1`, the max response was 33.6% under setting [1] and 39.5% under setting [4]. Moreover, the AC50 runs as follows: under setting [2], 10 µM [rising, partial curve]; under setting [3], 5.62 µM [rising, partial curve].
Consider `COCCn1c(=O)c(C)nc2cnc(OCc3ccccc3)nc21`, for which the max response was found to be 35.6% under setting [1] and 49% under setting [4]. The concentration at half-maximal activity (AC50) runs as follows: under setting [2], 1.58 µM [rising, full curve]; under setting [3], 1.26 µM [rising, full curve].
For `Cn1cc(-c2nc3cncnc3n(C3CC3)c2=O)c2ccccc21`, the max response reads like this: under setting [1], 30.4%; under setting [4], 35.3%. Also, the AC50 was 0.631 µM [rising, full curve, poor fit] under setting [2] and 0.562 µM [rising, full curve, poor fit] under setting [3].
With `COc1ccc(-n2c(=O)c(-c3cccs3)nc3cnc(Nc4ccccc4)nc32)cc1`, the max response was 128% under setting [1] and -55.1% under setting [4]. Further, the half-maximal activity concentration (AC50) by setting is: under setting [2], 14.1 µM [rising, partial curve]; under setting [3], 39.8 µM [falling, single point].
Turning to `CN(Cc1ccco1)c1ccnc(-c2ccccc2C(F)(F)F)n1`, the max response by setting is: under setting [1], 36.3%; under setting [4], 42.2%. In addition, the AC50 by setting is: under setting [2], 11.2 µM [rising, partial curve]; under setting [3], 8.91 µM [rising, partial curve, poor fit].
On to `CS(=O)(=O)Nc1cccc(-c2nc(Nc3ccncc3)c3ccccc3n2)c1`, for which the max response stood at 5.66% under setting [1] and 6.66% under setting [4]. The concentration at half-maximal activity (AC50) is 0.126 µM [rising, full curve] under setting [2] and 0.224 µM [rising, full curve] under setting [3].
On to `O=C1C[C@H](c2ccccc2)Oc2cc(O)cc(O)c21`, for which the max response under setting [1] was found to be 98.2% and the max response under setting [4] came out at 126%. In addition, the half-maximal activity concentration (AC50) under setting [2] is 28.2 µM [rising, partial curve, poor fit] and the AC50 under setting [3] is 31.6 µM [rising, partial curve, poor fit].
For the molecule `COc1ccc(Oc2ncc3nc(-c4ccccc4)c(=O)n(C4CC4)c3n2)cc1`, the max response under setting [1] came out at 14.5% and the max response under setting [4] worked out at 15.8%. Besides, the concentration at half-maximal activity (AC50) under setting [2] was 0.0158 µM [rising, full curve, poor fit] and the AC50 under setting [3] was 0.0158 µM [rising, full curve, poor fit].
In the case of `COc1ccc(-n2c(=O)c(C)nc3cnc(N4CCOCC4)nc32)cc1`, the max response amounted to 33.5% under setting [1] and 38.8% under setting [4]. The half-maximal activity concentration (AC50) is 2.51 µM [rising, full curve] under setting [2] and 2.24 µM [rising, full curve] under setting [3].

For the origin of these results see PubChem BioAssay (NCATS).
